In all, about 310,000 compounds went through this assay and about 14,000 (4.5%) showed an effect of 50% or more. Effects have a minus sign here. Some of the results follow.
target: human ether-à-go-go-related gene (hERG) potassium channel (human, UniProt Q12809); experiment: primary screen, population patch clamp on CHO cells stably expressing hERG
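Further: peak tail current of the secondary pulse compared with the same well before compound.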

human ether-à-go-go-related gene (hERG) potassium channel, sequence (Q12809 whole entry, looked up): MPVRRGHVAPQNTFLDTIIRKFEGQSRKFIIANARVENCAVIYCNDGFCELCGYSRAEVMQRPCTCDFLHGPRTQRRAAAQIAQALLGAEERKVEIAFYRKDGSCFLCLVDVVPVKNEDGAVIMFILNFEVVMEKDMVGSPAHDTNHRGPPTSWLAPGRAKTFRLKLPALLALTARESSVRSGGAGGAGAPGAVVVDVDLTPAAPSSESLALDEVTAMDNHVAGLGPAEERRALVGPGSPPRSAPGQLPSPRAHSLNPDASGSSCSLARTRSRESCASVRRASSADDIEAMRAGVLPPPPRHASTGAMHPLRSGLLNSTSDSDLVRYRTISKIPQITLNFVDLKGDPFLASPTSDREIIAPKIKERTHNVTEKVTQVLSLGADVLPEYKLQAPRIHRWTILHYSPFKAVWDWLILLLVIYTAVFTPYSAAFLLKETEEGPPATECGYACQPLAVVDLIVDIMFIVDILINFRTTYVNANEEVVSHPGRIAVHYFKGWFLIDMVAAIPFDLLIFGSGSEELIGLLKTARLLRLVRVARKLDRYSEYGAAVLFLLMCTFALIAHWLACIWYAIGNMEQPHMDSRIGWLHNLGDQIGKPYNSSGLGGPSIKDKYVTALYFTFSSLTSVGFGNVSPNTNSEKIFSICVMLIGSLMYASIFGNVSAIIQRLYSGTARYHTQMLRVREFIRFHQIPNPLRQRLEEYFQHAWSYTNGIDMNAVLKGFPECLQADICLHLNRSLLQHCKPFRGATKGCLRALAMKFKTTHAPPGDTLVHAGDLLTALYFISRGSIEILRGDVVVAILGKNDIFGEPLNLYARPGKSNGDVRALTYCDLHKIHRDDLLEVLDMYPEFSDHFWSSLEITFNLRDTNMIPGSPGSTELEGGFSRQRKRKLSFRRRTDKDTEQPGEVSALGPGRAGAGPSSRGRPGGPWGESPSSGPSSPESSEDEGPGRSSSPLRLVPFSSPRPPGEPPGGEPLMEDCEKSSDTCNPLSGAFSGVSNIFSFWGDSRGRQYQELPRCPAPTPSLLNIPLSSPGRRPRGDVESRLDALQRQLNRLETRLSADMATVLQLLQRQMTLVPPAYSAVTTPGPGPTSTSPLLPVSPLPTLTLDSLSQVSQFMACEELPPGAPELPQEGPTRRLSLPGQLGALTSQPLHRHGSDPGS

| SMILES | hERG current change (%, negative = inhibition) at 10uM [%] |
| --- | --- |
| Br.CCCc1nnc2n1N=C(c1ccc([N+](=O)[O-])cc1)CS2 | -38.6 |
| Cc1ccc2c(c1)CCCN2C(=O)CSc1ccccc1 | -21.2 |
| NC(=O)NC(c1ccccc1)c1ccccc1F (stereo not shown) | 9.53 |
| C=CCC1(O)C(=O)Nc2ccccc21 (stereo not shown) | 6.87 |
| COC(=O)CC1Oc2ccccc2N(Cc2ccccc2)C1=O (stereo not shown) | -12.6 |
| CCOC(=O)C1CCCN(C(=S)Nc2cccc(Cl)c2C)C1 (stereo not shown) | -3.13 |
| O=C(c1ccccn1)N1CCN(c2cccc(C(F)(F)F)c2)CC1 | -11.5 |
| CC(=O)c1sc2nc(CSc3nncn3C)[nH]c(=O)c2c1C | 5.77 |
| Cc1cc(C)c2nc(NC(=O)c3ccc4c(=O)n5c(nc4c3)CCCCC5)sc2c1 | 13.9 |
| Cc1ccc(Nc2c(-c3ccc(N4CCOCC4)cc3)nc3ncccn23)c(C)c1 | -5.83 |
| CC1CC(NC(=O)CCn2c(=O)oc3ccccc32)CC(C)(C)C1 (stereo not shown) | -27.4 |
| Cc1cc(C)c2sc(N)nc2c1 | 10.6 |
| Cc1ccc(/C=N/NC(=O)c2cccs2)s1 | 4.6 |
| CCNc1nc(NC(C)(C)C)nc(Oc2ccc(=O)n(-c3ccccc3)n2)n1 | 9.85 |
| O=C(CC12CC3CC(CC(C3)C1)C2)Nc1ccc2c(c1)COC2=O | -9.44 |
| Cc1cc(C(F)(F)F)c(C#N)c(=O)[nH]1 | 15.7 |
| Cc1cccc(NC(=S)NCCc2ccc3c(c2)OCCO3)c1C | -6.17 |
| CSCCC(=O)Nc1cc(S(=O)(=O)N2CCOCC2)ccc1N1CCN(C)CC1 | 15.3 |
| CCCCCCSc1cc(C)nc2ncnn12 | -42.9 |
| Cc1nc2ccc(Br)cn2c(=O)c1Cl | -10.6 |

| SMILES | hERG current change (%, negative = inhibition) at 10uM [%] |
| --- | --- |
| O=C(Oc1ccc(C(=S)N2CCOCC2)cc1)c1ccccc1[N+](=O)[O-] | 23.2 |
| COc1ccccc1CN1CCN(C(=O)COc2ccc3ccccc3c2)CC1 | -36 |
| CC1Cc2cc(/C(O)=C3/C(=O)C(=O)N(CCCn4ccnc4)C3c3cccnc3)ccc2O1 (stereo not shown) | 8.82 |
| CCC(C)(C)C1CCC2(CC1)NC(CO)(CO)CO2 (stereo not shown) | 12.2 |
| O=C(COC(=O)/C=C/c1ccccc1)NCc1cccs1 | -13.1 |
| O=C(Nc1sc2c(c1C(=O)O)CCC2)c1ccco1 | 7.29 |
| COc1ccc(C2=NN(C(=O)CSc3nc(=O)n4ccc(C)cc4n3)C(c3ccc(C)cc3)C2)cc1 (stereo not shown) | 5.1 |
| O=C(c1cccc(Cl)c1)N1CCCC(C(=O)N2CCCCCC2)C1 (stereo not shown) | -22.3 |
| CCN(CC)S(=O)(=O)c1ccc(N2CCOCC2)c(NC(=O)CCC2CCCCC2)c1 | -2.83 |
| COc1ccc(NS(=O)(=O)c2cccc(C(=O)NCCc3ccc(S(N)(=O)=O)cc3)c2)cc1 | 14.5 |
| CC[C@@]12C(=O)N(c3cccc(F)c3)C(=O)N1[C@H](c1ccc(Cl)cc1)[C@@H]1C(=O)N(C3CCCCC3)C(=O)[C@@H]12 | -5.3 |
| Nc1cc(N)nc(SCCOc2ccccc2F)n1 | 8.75 |
| CCC1C(=O)Nc2nc(-c3ccccc3)c(-c3ccccc3)n2N=C1C (stereo not shown) | -41.3 |
| Clc1cccc(OCCn2cncn2)c1Cl | 11.5 |
| COc1ccc(NC(=O)c2cc3ccccc3cc2O)cc1 | 17.2 |
| Cc1nnnn1/C(=C\c1ccccc1)C(=O)OCC(=O)N(C)C1CCS(=O)(=O)C1 (stereo not shown) | 8.24 |
| COc1cccc(OC)c1C(=O)NC(=S)N1CCCCC1c1cccnc1 (stereo not shown) | -13 |
| CCOC(=O)N1CCC(Nc2c(NCCN3CCN(c4cccc(Cl)c4)CC3)c(=O)c2=O)CC1 | -0.879 |
| NC(=O)C(CCC(=O)c1ccc(Br)cc1)S(=O)(=O)c1ccccc1 (stereo not shown) | -10.6 |
| Cc1ccc(NC(=O)CSc2nc3c(c(=O)[nH]2)CCC3)cc1C | -13.4 |

| SMILES | hERG current change (%, negative = inhibition) at 10uM [%] |
| --- | --- |
| CCOC(=O)C1(CC/C(C)=N\NC(N)=O)CC(C)(C)OC1=O (stereo not shown) | 3.89 |
| Cc1ccc(C2CC(c3cccs3)=NN2C(=O)CSc2nc(=O)n3ccc(C)cc3n2)cc1 (stereo not shown) | -46.3 |
| CS(=O)(=O)N(Cc1ccco1)Cc1ccccc1Cl | -17.6 |
| CC(=O)c1ccc(Nc2ccc(-c3ccccc3C)nn2)cc1 | -17.5 |
| CC(N=C1NC(C)(C)Cc2ccccc21)C(=O)O (stereo not shown) | 16.8 |
| O=C(O)CN1C(=O)/C(=C\c2cc(Br)ccc2OCc2ccccc2Cl)SC1=S | 19.4 |
| CCCNC(=O)OCc1cccnc1Sc1ccc(C)cc1 | -30 |
| COc1ccc(NC(=O)c2ccc(-n3nc(C)cc3C)cc2)cc1OC | -1.4 |
| COc1cccc(CNC(=O)CN2C(=O)COc3ccc(S(=O)(=O)N4CCCCC4)cc32)c1 | 7.3 |
| CCOc1ccc(CCNC(=O)COC(=O)c2cc(OC)c(OC)c(OC)c2)cc1OCC | 8.32 |
| COc1ccc(OCC(=O)N2CCN(C(=O)Cc3ccccc3)CC2)cc1 | -32.5 |
| O=S1(=O)CCC(N2CCOCC2)C1 (stereo not shown) | -0.887 |
| COC(=O)Nc1nc(-c2ccccc2)c(C(=O)c2ccc(Cl)cc2)s1 | 9.4 |
| COc1ccc(-c2csc(N3CCN(S(=O)(=O)c4ccc5c(c4)NC(=O)CO5)CC3)n2)cc1 | 17.2 |
| Cc1ccc(C(=O)Cn2nnc(-c3cccs3)n2)cc1 | 2.22 |
| Cc1nnc(SCC(=O)N2CCCC2)n1-c1ccc(F)cc1 | -5.16 |
| COc1ccc(-c2oc3ccccc3c(=O)c2OCC(=O)O)cc1 | 17.9 |
| O=C(C1CCCO1)N1CCN(C(=S)NC2CC2)CC1 (stereo not shown) | 23 |
